Values marked as one replicate rest on one cluster of the flow cell; about a third of the high ones do not repeat.
tested on: ATP; assay: switch fluorescence ratio, 500 uM ATP over buffer (Cy3 cluster intensity, sum of 5 cycles each) (fold (ratio)); higher = stronger signal-on switching upon ATP binding; sequences stand for … in TCGTCGGCAGCGTCAGATGTGTATAAGAGACAGTTTTTTTTTTTTTTTTTTTTTTTTT…TC; settings: aptamer strand: ATP DNA aptamer (quencher-CACCTGGGGGAGTATTGCGGAGGAAGG + anchor), 100 nM annealed; ATP concentration: 500 uM; one replicate
Outline: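 Between each of five buffer/ATP cycles, the flow-cell was stripped with NaOH and re-annealed. Each cycle imaged Cy3-labelled switching-strand clusters, annealed to 100 nM quencher-labelled ATP aptamer on a modified Illumina MiSeq flow-cell, first in selection buffer and then after 15 min with 500 uM ATP at 22 °C. The fluorescence ratio is summed target-cycle over summed buffer-cycle Cy3 intensity per cluster, averaged per switch-domain sequence, with clusters outside 100-1000 RFU excluded.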
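Also: ATP exposure 15 min at 22 °C before imaging.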

Sequence	switch fluorescence ratio
TCCTTGGACG	1.04
TCCTTGTGAA	1.03
TCCTTGTGGA	0.987
TCCTTTCCGT	1.17
TCCTTTTGGG	1
TCCTTTTGTA	0.976
TCGAAAAAAG	1.04
TCGAAATGCT	1.53
TCGAAATGGG	0.95
TCGAACAGTG	1.01
TCGAAGGCCA	1.01
TCGAAGTCTC	1.12
TCGAATAGTA	0.989
TCGAATCGG	1.01
TCGAATGAG	1.01
TCGAATGTTC	0.973
TCGACACGGC	1.09
TCGACGTGAT	3.73
TCGACGTGGC	1.2
TCGACTCTTC	1.07
TCGAGCACAG	1.28
TCGATATGTT	1.02
TCGATCGGTT	0.953
TCGATGTGCA	0.995
TCGATTAGGC	0.975

Sequence	switch fluorescence ratio
TCGATTATGT	1.02
TCGATTCGAG	1.01
TCGATTGGTA	1.01
TCGATTGTCT	1.02
TCGATTTGTG	1.01
TCGCAAATGA	2.31
TCGCAAGCAG	1.59
TCGCACACGG	1.24
TCGCCTACGT	1.02
TCGCCTCGGA	1.01
TCGCCTCTCA	0.962
TCGCCTTGAT	1
TCGCCTTTGC	1.09
TCGCGATTGC	3.67
TCGCGCACGT	1.09
TCGCGCCGCA	1.14
TCGCGCGCAG	1.05
TCGCGCGTTT	1.01
TCGCGGCTAA	1.06
TCGCGTAGAT	1.05
TCGCTACACA	0.991
TCGCTCGTAT	1
TCGCTCTAG	1.03
TCGCTGTGAT	1.01
TCGCTGTTGC	1.12

Sequence	switch fluorescence ratio
TCGCTTTTAA	1.08
TCGCTTTTCT	0.998
TCGGAATGAT	1.04
TCGGACTGAA	1.04
TCGGAGAACA	0.969
TCGGAGGAGT	1.03
TCGGAGGGA	1
TCGGAGGGCG	1.01
TCGGAGTGTT	1.05
TCGGATACGG	1.01
TCGGATCCTT	1.01
TCGGCACAAC	1.67
TCGGCCCTCG	0.973
TCGGCCCTGT	0.992
TCGGCGGCAG	1
TCGGCTTTGT	0.957
TCGGGAAATC	1.05
TCGGGCTGCC	0.996
TCGGGCTTGA	0.961
TCGGGGAT	1.01
TCGGGGCATG	1.04
TCGGGGTACT	1.09
TCGGGTACCG	0.984
TCGGGTGGCT	1.02
TCGGTAATGT	0.987

Sequence	switch fluorescence ratio
TCGGTACACG	0.999
TCGGTAGATA	1.02
TCGGTCAGGT	1.01
TCGGTCCAAA	0.983
TCGGTCTATG	0.968
TCGGTGACAT	1.01
TCGGTGCTA	1.03
TCGGTGGCAG	0.981
TCGGTGTTGG	0.982
TCGGTTAAG	1.06
TCGGTTAAGA	1.02
TCGGTTTGAA	1
TCGTAAAAC	1.56
TCGTAAAACC	1.27
TCGTAACGAG	0.961
TCGTAAGGC	1.93
TCGTACACAA	1.69
TCGTACGGAC	1.23
TCGTAGCC	0.976
TCGTATAATA	0.972
TCGTATAGAA	0.951
TCGTATATGA	0.983
TCGTCCCCGT	0.996
TCGTCGATCA	0.995
TCGTCTACAC	1.16
